The RNAGym collection of RNA variant scans (doi:10.1073/pnas.2313332121)
Variants at the background level are over-represented here.

B1: TPR 5TU (parent)
chain: GGAUCUUCUCGAUCUAACAAAAAAGACAAAUCUGCCACAAAGCUUGAGAGCAUCUUCGGAUGCAGAGGCGGCAGCCUUCGGUGGCGCGAUAGCGCCAACGUUCUCAACUAUGACACGCAAAACGCGUGCUCCGUUGAAUGGAGUUUAUCAUG

Variants of: B1
Experiment: polymerase ribozyme fitness, log enrichment relative to wild type (log ratio); higher = more active; in vitro selection for triplet polymerase activity
Procedure, shortened: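 Input and output libraries were sequenced on Illumina after a single in vitro selection round, run in triplicate on PCR-built, transcribed mutant libraries of each subunit of a heterodimeric triplet polymerase ribozyme. Selection annealed libraries to a biotinylated primer, the partner subunit and triplets, incubated them frozen at −7 °C, then gel-excised extended constructs for streptavidin-bead capture and RT-PCR. Genotypes with ≥10 input reads and ≥1 read per output were kept. Fitness is the logarithm, taken in base 2, of genotype enrichment divided by wild-type enrichment, using inverse-variance-weighted replicate averages.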

Q: With U55A C99A U102G G117U U134A as the variant, how does the “polymerase ribozyme fitness (log ratio)” value read?
A: ≤ -4.2

Q: For U55A G86A G94U A107G C125U, which “polymerase ribozyme fitness (log ratio)” value is on record?
A: ≤ -4.2

Q: For U56G G65A C76A G83A U127A, which “polymerase ribozyme fitness (log ratio)” value is on record?
A: ≤ -4.2

Q: With U56G C85U as the variant, how does the “polymerase ribozyme fitness (log ratio)” value read?
A: -1.42

Q: For U55A A73G G80U G88C A91C A98C A121G U144A U151C, which “polymerase ribozyme fitness (log ratio)” value is on record?
A: ≤ -4.2

Q: With U56C C85G C149A as the variant, how does the “polymerase ribozyme fitness (log ratio)” value read?
A: ≤ -4.2

Q: For U55C C76G G81A C87U G140C U151A, which “polymerase ribozyme fitness (log ratio)” value is on record?
A: ≤ -4.2

Q: Which “polymerase ribozyme fitness (log ratio)” value does the source give for U56A G59U A89G C99A A137U U145A here?
A: ≤ -4.2

Q: Which “polymerase ribozyme fitness (log ratio)” value does the source give for U55G U61G C69A C96U C131A here?
A: ≤ -4.2

Q: Which “polymerase ribozyme fitness (log ratio)” value does the source give for U55A C57U A60G C87A A98U A107U C116A G141U here?
A: ≤ -4.2

Q: With U55A C69U G84A A89G G100A C118G as the variant, how does the “polymerase ribozyme fitness (log ratio)” value read?
A: ≤ -4.2

Q: Which “polymerase ribozyme fitness (log ratio)” value does the source give for U55A U56C C63U A91C here?
A: ≤ -4.2

Q: For U56A G58U C87U A91G A150G, which “polymerase ribozyme fitness (log ratio)” value is on record?
A: ≤ -4.2

Q: Which “polymerase ribozyme fitness (log ratio)” value does the source give for U56A G58A C103A C125A here?
A: -0.231

Q: With U56G G58A C63G U101G A120U as the variant, how does the “polymerase ribozyme fitness (log ratio)” value read?
A: -2.56

Q: Which “polymerase ribozyme fitness (log ratio)” value does the source give for U56C C93U U101G C103U G136C here?
A: -4.09

Q: Which “polymerase ribozyme fitness (log ratio)” value does the source give for U56C A66U U82A C87U C93U here?
A: ≤ -4.2

Q: For U56A G74A A110G, which “polymerase ribozyme fitness (log ratio)” value is on record?
A: ≤ -4.2

Q: Which “polymerase ribozyme fitness (log ratio)” value does the source give for C54U U134C A138U here?
A: ≤ -4.2

Q: For U55A C72A U139C, which “polymerase ribozyme fitness (log ratio)” value is on record?
A: ≤ -4.2

Q: Which “polymerase ribozyme fitness (log ratio)” value does the source give for U56A C96U A119U here?
A: -0.585

Q: With U55G U61G G83A A91G G100A A120U as the variant, how does the “polymerase ribozyme fitness (log ratio)” value read?
A: ≤ -4.2

Q: With U55A C87G as the variant, how does the “polymerase ribozyme fitness (log ratio)” value read?
A: ≤ -4.2

Q: Which “polymerase ribozyme fitness (log ratio)” value does the source give for U55G G88U A91U C116A here?
A: ≤ -4.2

Q: For U55G U61G G88U, which “polymerase ribozyme fitness (log ratio)” value is on record?
A: ≤ -4.2

Q: For U56G U151C, which “polymerase ribozyme fitness (log ratio)” value is on record?
A: ≤ -4.2

Q: Which “polymerase ribozyme fitness (log ratio)” value does the source give for U56G U102C here?
A: -1.91

Q: Which “polymerase ribozyme fitness (log ratio)” value does the source give for U56A G83C A122G G152U here?
A: -3.94

Q: With U56A C96A A138G as the variant, how does the “polymerase ribozyme fitness (log ratio)” value read?
A: ≤ -4.2

Q: Which “polymerase ribozyme fitness (log ratio)” value does the source give for U55A C76A here?
A: -0.81

Q: Which “polymerase ribozyme fitness (log ratio)” value does the source give for U55A U146A here?
A: -0.393

Q: Which “polymerase ribozyme fitness (log ratio)” value does the source give for U55A U146G here?
A: -0.637

Q: Which “polymerase ribozyme fitness (log ratio)” value does the source give for U56G G136A here?
A: 0.0437

Q: Which “polymerase ribozyme fitness (log ratio)” value does the source give for U55A C85U here?
A: -0.644

Q: Which “polymerase ribozyme fitness (log ratio)” value does the source give for C57A A110U G141A here?
A: ≤ -4.2

Q: With U55C G59A C96A as the variant, how does the “polymerase ribozyme fitness (log ratio)” value read?
A: -3.02

Q: For U56A G81A C87G U101C C105G, which “polymerase ribozyme fitness (log ratio)” value is on record?
A: ≤ -4.2

Q: Which “polymerase ribozyme fitness (log ratio)” value does the source give for U55A U90C C95U A121U U146C here?
A: ≤ -4.2

Q: For U55A A98U, which “polymerase ribozyme fitness (log ratio)” value is on record?
A: -0.0691

Q: Which “polymerase ribozyme fitness (log ratio)” value does the source give for U55A A60U G84U C116G A119U G140C here?
A: ≤ -4.2

Q: With U56C C57U C103G A107C U127A G140U as the variant, how does the “polymerase ribozyme fitness (log ratio)” value read?
A: ≤ -4.2

Q: With U55A U139A as the variant, how does the “polymerase ribozyme fitness (log ratio)” value read?
A: -4.05

Q: Which “polymerase ribozyme fitness (log ratio)” value does the source give for U56A G81A G83A A91C A121C G143U here?
A: ≤ -4.2

Q: With U56A C57U C87U G88A C108A U146C A150U as the variant, how does the “polymerase ribozyme fitness (log ratio)” value read?
A: ≤ -4.2

Q: Which “polymerase ribozyme fitness (log ratio)” value does the source give for U55A C79A C99U G141C here?
A: ≤ -4.2

Q: For U55A G59A C99G C129U A147C, which “polymerase ribozyme fitness (log ratio)” value is on record?
A: ≤ -4.2

Q: For U55G C85A A137G, which “polymerase ribozyme fitness (log ratio)” value is on record?
A: ≤ -4.2

Q: With U56A G65A G88C as the variant, how does the “polymerase ribozyme fitness (log ratio)” value read?
A: ≤ -4.2

Q: For U55A C85A C103U U135A, which “polymerase ribozyme fitness (log ratio)” value is on record?
A: ≤ -4.2

Q: Which “polymerase ribozyme fitness (log ratio)” value does the source give for U55A G81C G84U C116A here?
A: -2.11

Q: For U55A G83A G86A A89C C96A A113C U127C, which “polymerase ribozyme fitness (log ratio)” value is on record?
A: ≤ -4.2

Q: Which “polymerase ribozyme fitness (log ratio)” value does the source give for U56A C69A here?
A: -1.46

Q: Which “polymerase ribozyme fitness (log ratio)” value does the source give for U55A C96G G143A here?
A: -2.1

Q: Which “polymerase ribozyme fitness (log ratio)” value does the source give for U55A A64C G86U here?
A: ≤ -4.2

Q: Which “polymerase ribozyme fitness (log ratio)” value does the source give for U56A G126U here?
A: 0.137

Q: For U55C C79A A110C C114G, which “polymerase ribozyme fitness (log ratio)” value is on record?
A: ≤ -4.2

Q: For U55G A98G, which “polymerase ribozyme fitness (log ratio)” value is on record?
A: -0.84

Q: With U55A U101G A107G A138C G141A as the variant, how does the “polymerase ribozyme fitness (log ratio)” value read?
A: ≤ -4.2

Q: For U56A C96G, which “polymerase ribozyme fitness (log ratio)” value is on record?
A: -0.228

Q: For U55A G67A A91U C99U, which “polymerase ribozyme fitness (log ratio)” value is on record?
A: ≤ -4.2

Q: Which “polymerase ribozyme fitness (log ratio)” value does the source give for U56C C93U U151G here?
A: ≤ -4.2

Q: With U55G A66G A107G as the variant, how does the “polymerase ribozyme fitness (log ratio)” value read?
A: ≤ -4.2

Q: For U56A U82G C87G A91C, which “polymerase ribozyme fitness (log ratio)” value is on record?
A: ≤ -4.2

Q: Which “polymerase ribozyme fitness (log ratio)” value does the source give for U56C C79A G88C C125U here?
A: ≤ -4.2

Q: For U56A C108U U148G, which “polymerase ribozyme fitness (log ratio)” value is on record?
A: ≤ -4.2

Q: Which “polymerase ribozyme fitness (log ratio)” value does the source give for U56A A107U here?
A: -2.87

Q: Which “polymerase ribozyme fitness (log ratio)” value does the source give for U56A G88A here?
A: -3.78

Q: Which “polymerase ribozyme fitness (log ratio)” value does the source give for U55G G80U C108G G124A here?
A: ≤ -4.2

Q: With U55A C79U G94C U146A as the variant, how does the “polymerase ribozyme fitness (log ratio)” value read?
A: ≤ -4.2

Q: Which “polymerase ribozyme fitness (log ratio)” value does the source give for U56A G74U C85G G133U here?
A: ≤ -4.2

Q: Which “polymerase ribozyme fitness (log ratio)” value does the source give for U55A C76U C85G A110C C118A here?
A: ≤ -4.2

Q: With U55A G70C G92U A119U as the variant, how does the “polymerase ribozyme fitness (log ratio)” value read?
A: -3.25

Q: With U55A U148C as the variant, how does the “polymerase ribozyme fitness (log ratio)” value read?
A: -1.05

Q: Which “polymerase ribozyme fitness (log ratio)” value does the source give for U56A C79U A91C C96A here?
A: ≤ -4.2

Q: Which “polymerase ribozyme fitness (log ratio)” value does the source give for U55A A73U C93G A106G here?
A: ≤ -4.2

Q: For U56A A73C G84U U127C, which “polymerase ribozyme fitness (log ratio)” value is on record?
A: ≤ -4.2

Q: Which “polymerase ribozyme fitness (log ratio)” value does the source give for U55A A66G A73U C76G G81A C96U here?
A: ≤ -4.2

Q: With U55A G100C U104G G143C U148A as the variant, how does the “polymerase ribozyme fitness (log ratio)” value read?
A: ≤ -4.2

Q: With U56A C79U G92U C99G as the variant, how does the “polymerase ribozyme fitness (log ratio)” value read?
A: ≤ -4.2

Q: With U55C C87U C103G G140A as the variant, how does the “polymerase ribozyme fitness (log ratio)” value read?
A: ≤ -4.2

Q: For U55A A107C, which “polymerase ribozyme fitness (log ratio)” value is on record?
A: ≤ -4.2

Q: With U55C C95U C103A as the variant, how does the “polymerase ribozyme fitness (log ratio)” value read?
A: -1.54

Q: Which “polymerase ribozyme fitness (log ratio)” value does the source give for U56A G65A C75A C85U U148G here?
A: ≤ -4.2

Q: With U56A A91U A113U U135C as the variant, how does the “polymerase ribozyme fitness (log ratio)” value read?
A: ≤ -4.2
